The supplement of paper PMC8728848
The other results are listed elsewhere or left out.

Experiments:
Test in all cases: glycan array binding signal (z-score within array); higher = stronger binding
Details in all cases: glycan notation: IUPAC condensed, linker removed
Gal6S(b1-4)Glc = molecular target: Gal6S(b1-4)Glc
Procedure, shortened: (§1)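 Negative Z-scores can be read as non-binding. The Z-score is calculated within each array and then averaged across arrays of one protein sequence at different concentrations or buffers and across linkers. Arrays, 3228 in all, were curated from the Consortium for Functional Glycomics database and kept only where the protein sequence was available.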

Gal6S(b1-4)Glc6S = molecular target: Gal6S(b1-4)Glc6S
Procedure, shortened: as §1

Gal6S(b1-4)GlcNAc = molecular target: Gal6S(b1-4)GlcNAc
Procedure, shortened: as §1

Gal6S(b1-4)GlcNAc6S = molecular target: Gal6S(b1-4)GlcNAc6S
Procedure, shortened: as §1

GalNAc(a1-3)Gal = molecular target: GalNAc(a1-3)Gal
Procedure, shortened: as §1

GalNAc(a1-3)GalNAc = molecular target: GalNAc(a1-3)GalNAc
Procedure, shortened: as §1

[1] = molecular target: GalNAc(a1-3)GalNAc(b1-3)Gal(a1-4)Gal(b1-4)Glc
Procedure, shortened: as §1

[2] = molecular target: GalNAc(a1-3)GalNAc(b1-3)Gal(a1-4)Gal(b1-4)GlcNAc
Procedure, shortened: as §1

GalNAc(b1-3)Gal = molecular target: GalNAc(b1-3)Gal
Procedure, shortened: as §1

[3] = molecular target: GalNAc(b1-3)Gal(a1-4)Gal(b1-4)GlcNAc
Procedure, shortened: as §1

[4] = molecular target: GalNAc(b1-3)Gal(a1-4)Gal(b1-4)GlcNAc(b1-3)Gal(b1-4)Glc
Procedure, shortened: as §1

[5] = molecular target: GalNAc(b1-3)Gal(a1-6)Gal(b1-4)Glc
Procedure, shortened: as §1

GalNAc(b1-3)GalNAc = molecular target: GalNAc(b1-3)GalNAc
Procedure, shortened: as §1

GalNAc(b1-3)GlcNAc = molecular target: GalNAc(b1-3)GlcNAc
Procedure, shortened: as §1

GalNAc(b1-4)Gal(b1-4)Glc = molecular target: GalNAc(b1-4)Gal(b1-4)Glc
Procedure, shortened: as §1

GalNAc(b1-4)GlcNAc = molecular target: GalNAc(b1-4)GlcNAc
Procedure, shortened: as §1

[6] = molecular target: GalNAc(b1-4)GlcNAc(b1-2)Man
Procedure, shortened: as §1

[7] = molecular target: GalNAc(b1-4)GlcNAc(b1-2)Man(a1-3)[GalNAc(b1-4)GlcNAc(b1-2)Man(a1-6)]Man(b1-4)GlcNAc(b1-4)GlcNAc
Procedure, shortened: as §1

[8] = molecular target: GalNAc(b1-4)GlcNAc(b1-3)GalNAc(b1-4)GlcNAc
Procedure, shortened: as §1

GalNAc(b1-4)GlcNAc6S = molecular target: GalNAc(b1-4)GlcNAc6S
Procedure, shortened: as §1

GalNAc(b1-6)GalNAc = molecular target: GalNAc(b1-6)GalNAc
Procedure, shortened: as §1

GalNAc3S(b1-4)GlcNAc = molecular target: GalNAc3S(b1-4)GlcNAc
Procedure, shortened: as §1

GalNAc3S(b1-4)GlcNAc3S = molecular target: GalNAc3S(b1-4)GlcNAc3S
Procedure, shortened: as §1

[9] = molecular target: GalNAc3S(b1-4)[Fuc(a1-3)]GlcNAc
Procedure, shortened: as §1

GalNAc4S6S(b1-4)GlcNAc = molecular target: GalNAc4S6S(b1-4)GlcNAc
Procedure, shortened: as §1

GalNAc6S(b1-4)GlcNAc = molecular target: GalNAc6S(b1-4)GlcNAc
Procedure, shortened: as §1

Glc(a1-4)Glc = molecular target: Glc(a1-4)Glc
Procedure, shortened: as §1

[10] = molecular target: Glc(a1-4)Glc(a1-4)Glc(a1-4)Glc
Procedure, shortened: as §1

Glc(a1-6)Glc(a1-6)Glc = molecular target: Glc(a1-6)Glc(a1-6)Glc
Procedure, shortened: as §1

[11] = molecular target: Glc(a1-6)Glc(a1-6)Glc(a1-6)Glc
Procedure, shortened: as §1

Glc(b1-4)Glc = molecular target: Glc(b1-4)Glc
Procedure, shortened: as §1

Glc(b1-6)Glc = molecular target: Glc(b1-6)Glc
Procedure, shortened: as §1

GlcA(b1-3)Gal = molecular target: GlcA(b1-3)Gal
Procedure, shortened: as §1

GlcA(b1-3)GlcNAc = molecular target: GlcA(b1-3)GlcNAc
Procedure, shortened: as §1

GlcA(b1-6)Gal = molecular target: GlcA(b1-6)Gal
Procedure, shortened: as §1

[12] = molecular target: GlcA3S(b1-3)Gal(b1-4)GlcNAc(b1-2)Man
Procedure, shortened: as §1

[13] = molecular target: GlcA3S(b1-3)Gal(b1-4)GlcNAc(b1-3)Gal(b1-4)Glc
Procedure, shortened: as §1

[14] = molecular target: GlcNAc(a1-3)Gal(b1-4)GlcNAc
Procedure, shortened: as §1

[15] = molecular target: GlcNAc(a1-4)Gal(b1-3)GlcNAc
Procedure, shortened: as §1

[16] = molecular target: GlcNAc(a1-4)Gal(b1-4)GalNAc
Procedure, shortened: as §1

[17] = molecular target: GlcNAc(a1-4)Gal(b1-4)GlcNAc
Procedure, shortened: as §1

[18] = molecular target: GlcNAc(a1-4)Gal(b1-4)GlcNAc(b1-3)Gal(b1-4)Glc
Procedure, shortened: as §1

[19] = molecular target: GlcNAc(a1-4)Gal(b1-4)GlcNAc(b1-3)Gal(b1-4)GlcNAc
Procedure, shortened: as §1

[20] = molecular target: GlcNAc(a1-4)Gal(b1-4)GlcNAc(b1-3)Gal(b1-4)GlcNAc(b1-3)Gal(b1-4)GlcNAc
Procedure, shortened: as §1

[21] = molecular target: GlcNAc(a1-4)Gal(b1-4)GlcNAc(b1-3)Gal(b1-4)[Fuc(a1-3)]GlcNAc(b1-3)Gal(b1-4)[Fuc(a1-3)]GlcNAc
Procedure, shortened: as §1

B1: BC2LB (Burholderia cenocepacia), B4EH85_BURCJ (protein)
chain: MGSSHHHHHHSSGENLYFQGHMSQPFTHDDLYALLQLAGNDATAVQANGDQAVLDRMRQFMTAQLVEKLPQYDVFVDIATIPYSFDVGSWQNKVKTDAAGEVVACTVTWAGAPGVLPGAAAKFGVGAVVNYFSKATPH
B1 was tested, and the “glycan array binding signal (z-score)” value (Gal6S(b1-4)Glc) was -0.305, the “glycan array binding signal (z-score)” value (Gal6S(b1-4)Glc6S) was -0.207 and the “glycan array binding signal (z-score)” value (Gal6S(b1-4)GlcNAc) was -0.289. For the same binder, the “glycan array binding signal (z-score)” value (Gal6S(b1-4)GlcNAc6S) was -0.225, the “glycan array binding signal (z-score)” value (GalNAc(a1-3)Gal) was -0.199 and the “glycan array binding signal (z-score)” value (GalNAc(a1-3)GalNAc) was -0.19. The “glycan array binding signal (z-score)” value [1] was -0.232, the “glycan array binding signal (z-score)” value [2] was -0.055 and the “glycan array binding signal (z-score)” value (GalNAc(b1-3)Gal) was 1.32. The “glycan array binding signal (z-score)” value [3] was -0.035, the “glycan array binding signal (z-score)” value [4] was 0.037 and the “glycan array binding signal (z-score)” value [5] was 0.063. The “glycan array binding signal (z-score)” value (GalNAc(b1-3)GalNAc) was -0.258, the “glycan array binding signal (z-score)” value (GalNAc(b1-3)GlcNAc) was -0.254 and the “glycan array binding signal (z-score)” value (GalNAc(b1-4)Gal(b1-4)Glc) was 0.361. The “glycan array binding signal (z-score)” value (GalNAc(b1-4)GlcNAc) was -0.011, the “glycan array binding signal (z-score)” value [6] was -0.204 and the “glycan array binding signal (z-score)” value [7] was -0.156. The “glycan array binding signal (z-score)” value [8] was -0.282, the “glycan array binding signal (z-score)” value (GalNAc(b1-4)GlcNAc6S) was -0.201 and the “glycan array binding signal (z-score)” value (GalNAc(b1-6)GalNAc) was -0.289. The “glycan array binding signal (z-score)” value (GalNAc3S(b1-4)GlcNAc) was -0.231, the “glycan array binding signal (z-score)” value (GalNAc3S(b1-4)GlcNAc3S) was -0.264 and the “glycan array binding signal (z-score)” value [9] was -0.402. For the same binder, the “glycan array binding signal (z-score)” value (GalNAc4S6S(b1-4)GlcNAc) was -0.267, the “glycan array binding signal (z-score)” value (GalNAc6S(b1-4)GlcNAc) was -0.3 and the “glycan array binding signal (z-score)” value (Glc(a1-4)Glc) was -0.138. The “glycan array binding signal (z-score)” value [10] was -0.254, the “glycan array binding signal (z-score)” value (Glc(a1-6)Glc(a1-6)Glc) was -0.061 and the “glycan array binding signal (z-score)” value [11] was -0.041. For the same binder, the “glycan array binding signal (z-score)” value (Glc(b1-4)Glc) was 0.043, the “glycan array binding signal (z-score)” value (Glc(b1-6)Glc) was 0.216 and the “glycan array binding signal (z-score)” value (GlcA(b1-3)Gal) was -0.263. The “glycan array binding signal (z-score)” value (GlcA(b1-3)GlcNAc) was -0.145, the “glycan array binding signal (z-score)” value (GlcA(b1-6)Gal) was -0.214 and the “glycan array binding signal (z-score)” value [12] was -0.286. For the same binder, the “glycan array binding signal (z-score)” value [13] was -0.222, the “glycan array binding signal (z-score)” value [14] was -0.134 and the “glycan array binding signal (z-score)” value [15] was -0.346. For the same binder, the “glycan array binding signal (z-score)” value [16] was -0.265, the “glycan array binding signal (z-score)” value [17] was -0.363 and the “glycan array binding signal (z-score)” value [18] was -0.27. For the same binder, the “glycan array binding signal (z-score)” value [19] was -0.246, the “glycan array binding signal (z-score)” value [20] was -0.337 and the “glycan array binding signal (z-score)” value [21] was 1.79.
